In patent publication US11178870B2 (priority 2017, dated 2021):

Columns and labels:
Assay type in all cases: in vivo
Botrytis cinerea = assay: Test Example B: Gray mold on tomato; conditions: for Test B control value (gray mold on tomato): class of control value, Table 7; for control value, Test B (gray mold on tomato): Table 7, Test B; for Test B control value: Gray mold on tomato
[1] = tested on: Blumeria graminis f. sp. hordei; assay: Test Example D: Powdery mildew on barley; conditions: for Test D control value (powdery mildew on barley): class of control value, Table 7; for control value, Test D (powdery mildew on barley): Table 7, Test D; for Test D control value: Powdery mildew on barley
Alternaia brassicicola = assay: Test Example C: Alternaria sooty spot on cabbage; conditions: for Test C control value (Alternaria sooty spot on cabbage): class of control value, Table 7; for control value, Test C (Alternaria sooty spot on cabbage): Table 7, Test C; for Test C control value: Alternaria sooty spot on cabbage
Plasmopara viticola = assay: Test Example G: Downy mildew on vine; conditions: for Test G control value (downy mildew on vine): 250 ppm spray, investigated 7 to 10 days after inoculation; for Test G control value (downy mildew on vine) / Test G control value: 2.5 ml/pot; for control value, Test G (downy mildew on vine): 250 ppm sprayed (2.5 ml/pot) before inoculation, assessed 7 to 10 days after inoculation; for Test G control value: Downy mildew on vine, 250 ppm sprayed, 7 to 10 days after inoculation
Puccinia recondita = assay: Test Example E: Brown rust on wheat; conditions: for Test E control value (brown rust on wheat): class of control value, Table 7; for control value, Test E (brown rust on wheat): Table 7, Test E; for Test E control value: Brown rust on wheat

## O=c1c(Cl)cc(-n2cc(F)cn2)c(-c2ccc(F)cc2Cl)n1CC(F)F [Compound 426]
Botrytis cinerea
  Test B control value (gray mold on tomato): H (H shows the control value more than 50%)
[1]
  Test D control value (powdery mildew on barley): H (H shows the control value more than 50%)
Alternaia brassicicola
  Test C control value (Alternaria sooty spot on cabbage): H (H shows the control value more than 50%)
Plasmopara viticola
  Test G control value (downy mildew on vine): L (L shows the control value of 50% or less)
Puccinia recondita
  Test E control value (brown rust on wheat): H (H shows the control value more than 50%)

## CCn1c(-c2ccc(F)cc2C)c(-n2ncc(C)c2Cl)cc(Br)c1=O [Compound 371]
Botrytis cinerea
  control value, Test B (gray mold on tomato): H (H shows the control value more than 50%)
[1]
  control value, Test D (powdery mildew on barley): H (H shows the control value more than 50%)
Alternaia brassicicola
  control value, Test C (Alternaria sooty spot on cabbage): H (H shows the control value more than 50%)
Plasmopara viticola
  control value, Test G (downy mildew on vine): H (H shows the control value more than 50%)
Puccinia recondita
  control value, Test E (brown rust on wheat): H (H shows the control value more than 50%)

## COc1ccc(-c2c(-n3cc(Cl)cn3)cc(Br)c(=O)n2CC(F)F)c(Br)c1 [Compound 288]
Botrytis cinerea
  control value, Test B (gray mold on tomato): H (H shows the control value more than 50%)
[1]
  control value, Test D (powdery mildew on barley): L (L shows the control value of 50% or less)
Alternaia brassicicola
  control value, Test C (Alternaria sooty spot on cabbage): H (H shows the control value more than 50%)
Plasmopara viticola
  control value, Test G (downy mildew on vine): L (L shows the control value of 50% or less)
Puccinia recondita
  control value, Test E (brown rust on wheat): H (H shows the control value more than 50%)

## CCn1c(-c2c(F)cc(OC)cc2F)c(C2OCCO2)cc(Cl)c1=O [Compound 12]
Botrytis cinerea
  Test B control value: H (H shows the control value more than 50%)
[1]
  Test D control value: L (L shows the control value of 50% or less)
Alternaia brassicicola
  Test C control value: H (H shows the control value more than 50%)
Plasmopara viticola
  Test G control value: L (L shows the control value of 50% or less)
Puccinia recondita
  Test E control value: H (H shows the control value more than 50%)

## CCn1c(-c2ccc(OC)cc2F)c(-n2cc(F)cn2)cc(Br)c1=O [Compound 302]
Botrytis cinerea
  control value, Test B (gray mold on tomato): H (H shows the control value more than 50%)
[1]
  control value, Test D (powdery mildew on barley): H (H shows the control value more than 50%)
Alternaia brassicicola
  control value, Test C (Alternaria sooty spot on cabbage): H (H shows the control value more than 50%)
Plasmopara viticola
  control value, Test G (downy mildew on vine): H (H shows the control value more than 50%)
Puccinia recondita
  control value, Test E (brown rust on wheat): H (H shows the control value more than 50%)

## CCn1c(-c2ccc(Br)cc2F)c(-n2cc(C)cn2)ccc1=O [Compound 485]
Botrytis cinerea
  Test B control value (gray mold on tomato): L (L shows the control value of 50% or less)
[1]
  Test D control value (powdery mildew on barley): H (H shows the control value more than 50%)
Alternaia brassicicola
  Test C control value (Alternaria sooty spot on cabbage): H (H shows the control value more than 50%)
Plasmopara viticola
  Test G control value (downy mildew on vine): L (L shows the control value of 50% or less)
Puccinia recondita
  Test E control value (brown rust on wheat): H (H shows the control value more than 50%)

## CCn1c(-c2ccccc2Cl)c(-n2ncc(C)c2Cl)cc(Br)c1=O [Compound 181]
Botrytis cinerea
  Test B control value: H (H shows the control value more than 50%)
[1]
  Test D control value: H (H shows the control value more than 50%)
Alternaia brassicicola
  Test C control value: H (H shows the control value more than 50%)
Plasmopara viticola
  Test G control value: H (H shows the control value more than 50%)
Puccinia recondita
  Test E control value: H (H shows the control value more than 50%)

## O=c1c(Br)cc(-c2sccc2Br)c(-c2c(F)cccc2F)n1CC(F)F [Compound 423]
Botrytis cinerea
  Test B control value (gray mold on tomato): H (H shows the control value more than 50%)
[1]
  Test D control value (powdery mildew on barley): H (H shows the control value more than 50%)
Alternaia brassicicola
  Test C control value (Alternaria sooty spot on cabbage): H (H shows the control value more than 50%)
Plasmopara viticola
  Test G control value (downy mildew on vine): H (H shows the control value more than 50%)
Puccinia recondita
  Test E control value (brown rust on wheat): H (H shows the control value more than 50%)

## Cn1c(-c2ccc(F)cc2Cl)c(-n2cc(F)cn2)ccc1=O [Compound 481]
Botrytis cinerea
  Test B control value (gray mold on tomato): H (H shows the control value more than 50%)
[1]
  Test D control value (powdery mildew on barley): H (H shows the control value more than 50%)
Alternaia brassicicola
  Test C control value (Alternaria sooty spot on cabbage): L (L shows the control value of 50% or less)
Plasmopara viticola
  Test G control value (downy mildew on vine): L (L shows the control value of 50% or less)
Puccinia recondita
  Test E control value (brown rust on wheat): H (H shows the control value more than 50%)

## CCn1c(-c2c(F)cc(F)cc2F)c(-n2cc(C)cn2)cc(Cl)c1=O [Compound 85]
Botrytis cinerea
  Test B control value: H (H shows the control value more than 50%)
[1]
  Test D control value: H (H shows the control value more than 50%)
Alternaia brassicicola
  Test C control value: H (H shows the control value more than 50%)
Plasmopara viticola
  Test G control value: L (L shows the control value of 50% or less)
Puccinia recondita
  Test E control value: H (H shows the control value more than 50%)

## CCn1c(-c2c(F)cc(OC)cc2F)c(-c2ccnn2C)cc(Cl)c1=O [Compound 28]
Botrytis cinerea
  Test B control value: H (H shows the control value more than 50%)
[1]
  Test D control value: H (H shows the control value more than 50%)
Alternaia brassicicola
  Test C control value: H (H shows the control value more than 50%)
Plasmopara viticola
  Test G control value: L (L shows the control value of 50% or less)
Puccinia recondita
  Test E control value: H (H shows the control value more than 50%)

## CCn1c(-c2c(F)cccc2Cl)c(-n2cc(F)cn2)cc(Br)c1=O [Compound 380]
Botrytis cinerea
  Test B control value (gray mold on tomato): H (H shows the control value more than 50%)
[1]
  Test D control value (powdery mildew on barley): L (L shows the control value of 50% or less)
Alternaia brassicicola
  Test C control value (Alternaria sooty spot on cabbage): H (H shows the control value more than 50%)
Plasmopara viticola
  Test G control value (downy mildew on vine): L (L shows the control value of 50% or less)
Puccinia recondita
  Test E control value (brown rust on wheat): H (H shows the control value more than 50%)

## O=c1c(Cl)cc(-n2cc(Cl)cn2)c(-c2ccccc2F)n1CC(F)F [Compound 277]
Botrytis cinerea
  control value, Test B (gray mold on tomato): H (H shows the control value more than 50%)
[1]
  control value, Test D (powdery mildew on barley): H (H shows the control value more than 50%)
Alternaia brassicicola
  control value, Test C (Alternaria sooty spot on cabbage): H (H shows the control value more than 50%)
Plasmopara viticola
  control value, Test G (downy mildew on vine): H (H shows the control value more than 50%)
Puccinia recondita
  control value, Test E (brown rust on wheat): H (H shows the control value more than 50%)

## CN1C(=O)CCC(c2ccsc2Br)=C1c1c(F)cccc1F [Compound 454]
Botrytis cinerea
  Test B control value (gray mold on tomato): H (H shows the control value more than 50%)
[1]
  Test D control value (powdery mildew on barley): H (H shows the control value more than 50%)
Alternaia brassicicola
  Test C control value (Alternaria sooty spot on cabbage): H (H shows the control value more than 50%)
Plasmopara viticola
  Test G control value (downy mildew on vine): H (H shows the control value more than 50%)
Puccinia recondita
  Test E control value (brown rust on wheat): H (H shows the control value more than 50%)

## CCn1c(-c2c(F)cccc2F)c(-n2cc(F)cn2)ccc1=O [Compound 318]
Botrytis cinerea
  control value, Test B (gray mold on tomato): H (H shows the control value more than 50%)
[1]
  control value, Test D (powdery mildew on barley): H (H shows the control value more than 50%)
Alternaia brassicicola
  control value, Test C (Alternaria sooty spot on cabbage): H (H shows the control value more than 50%)
Plasmopara viticola
  control value, Test G (downy mildew on vine): L (L shows the control value of 50% or less)
Puccinia recondita
  control value, Test E (brown rust on wheat): H (H shows the control value more than 50%)

## CCn1c(-c2ccc(OC)cc2Cl)c(-c2ccsc2Cl)ccc1=O [Compound 497]
Botrytis cinerea
  Test B control value (gray mold on tomato): H (H shows the control value more than 50%)
[1]
  Test D control value (powdery mildew on barley): L (L shows the control value of 50% or less)
Alternaia brassicicola
  Test C control value (Alternaria sooty spot on cabbage): H (H shows the control value more than 50%)
Plasmopara viticola
  Test G control value (downy mildew on vine): H (H shows the control value more than 50%)
Puccinia recondita
  Test E control value (brown rust on wheat): H (H shows the control value more than 50%)

## CCn1c(-c2c(F)cccc2F)c(-n2cc(F)cn2)cc(Cl)c1=O [Compound 319]
Botrytis cinerea
  control value, Test B (gray mold on tomato): H (H shows the control value more than 50%)
[1]
  control value, Test D (powdery mildew on barley): H (H shows the control value more than 50%)
Alternaia brassicicola
  control value, Test C (Alternaria sooty spot on cabbage): H (H shows the control value more than 50%)
Plasmopara viticola
  control value, Test G (downy mildew on vine): L (L shows the control value of 50% or less)
Puccinia recondita
  control value, Test E (brown rust on wheat): H (H shows the control value more than 50%)

## CCn1c(-c2c(F)cc(OC)cc2F)c(-c2oc(Br)nc2Br)cc(Cl)c1=O [Compound 116]
Botrytis cinerea
  Test B control value: H (H shows the control value more than 50%)
[1]
  Test D control value: L (L shows the control value of 50% or less)
Alternaia brassicicola
  Test C control value: H (H shows the control value more than 50%)
Plasmopara viticola
  Test G control value: H (H shows the control value more than 50%)
Puccinia recondita
  Test E control value: H (H shows the control value more than 50%)

## CCn1c(-c2c(F)cccc2F)c(-c2ocnc2OC)cc(Cl)c1=O [Compound 91]
Botrytis cinerea
  Test B control value: L (L shows the control value of 50% or less)
[1]
  Test D control value: L (L shows the control value of 50% or less)
Alternaia brassicicola
  Test C control value: H (H shows the control value more than 50%)
Plasmopara viticola
  Test G control value: L (L shows the control value of 50% or less)
Puccinia recondita
  Test E control value: L (L shows the control value of 50% or less)

## CCn1c(-c2c(F)cccc2F)c(-c2cc(Cl)sc2Cl)cc(Cl)c1=O [Compound 297]
Botrytis cinerea
  control value, Test B (gray mold on tomato): L (L shows the control value of 50% or less)
[1]
  control value, Test D (powdery mildew on barley): L (L shows the control value of 50% or less)
Alternaia brassicicola
  control value, Test C (Alternaria sooty spot on cabbage): L (L shows the control value of 50% or less)
Plasmopara viticola
  control value, Test G (downy mildew on vine): L (L shows the control value of 50% or less)
Puccinia recondita
  control value, Test E (brown rust on wheat): H (H shows the control value more than 50%)

## Cn1c(-c2c(F)cc(F)cc2F)c(-n2cc(Cl)cn2)cc(Br)c1=O [Compound 176]
Botrytis cinerea
  Test B control value: H (H shows the control value more than 50%)
[1]
  Test D control value: H (H shows the control value more than 50%)
Alternaia brassicicola
  Test C control value: H (H shows the control value more than 50%)
Plasmopara viticola
  Test G control value: L (L shows the control value of 50% or less)
Puccinia recondita
  Test E control value: H (H shows the control value more than 50%)
